From PubChem BioAssay AID588855 (National Center for Advancing Translational Sciences (NCATS), 2011)
Among all 410,000 compounds or so, about 5,000 (1.2%) were called active. Inconclusive results, whose numbers are uncertain, are shown with a selection of clear calls. Calls follow the shape of the dose curve; as a rule, active = well fitted inhibition curve with a large enough effect; inconclusive = small, poorly fitted or top-dose-only effect; inactive = no such curve, though single readings can be large or run the other way. A potency beside an inconclusive call is a rough fit, not a confirmed value.

Experiment: qHTS for Inhibitors of TGF-b; also: nearly all actives have a fitted effect of over 65% in size
Conditions: HepG2 CAGA-GFP TGF-b/SMAD3 reporter, GFP fluorescence, 18 h, TGF-beta stimulated, 500 pg/mL final; series mostly up to 46.1 µM
In short: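 HEPG2 CAGA-GFP cells (1000/well, DMEM with 1% FBS) were pre-incubated 2 h at 37 degrees C, given compound by pin tool, then stimulated with TGF-beta at 500 pg/mL final for 18 h before per-cell GFP fluorescence imaging.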
Potency is read from the fitted curve at half-maximal effect; tags tell the direction and shape of the fitted curve.

Compound	Potency
O=C1[C@@H](c2ccccc2)[C@@H](c2ccccc2)N1c1cccnc1	inconclusive: 11.2 µM [inhibitor, partial curve]
Cc1ccc(C)c(-n2c3nc(=O)[nH]c(=O)c-3cc3cc([N+](=O)[O-])ccc32)c1	inconclusive: 12.6 µM [inhibitor, partial curve, poor fit]
COc1ccccc1Cc1c(C2CCCCC2)nc2ccc(C)cn12	active: 15.8 µM
CCOC(=O)Cc1csc(NC(=O)c2cnc3sc(C)cn3c2=O)n1	inactive
COc1cccc(NC(=O)C2(C)CCN2Cc2ccccc2Cl)c1 (centres undefined)	inconclusive: 35.5 µM [inhibitor, single point]
CC1=NNC(=O)C1C(c1ccc(Cl)cc1)C(C#N)C#N (centres undefined)	inconclusive: 12.6 µM [inhibitor, partial curve, poor fit]
S=c1[nH]nc(-c2ccccc2)n1/N=C/C=C/c1ccco1	inactive
COc1ccc(Nc2ccnc(Nc3ccc(OC)cc3)n2)cc1	inconclusive: 35.5 µM [inhibitor, single point]
CCC(=O)OC1(C)C(=O)C2=COC(c3ccc(OC)cc3)=CC2=C(Br)C1=O (centres undefined)	inconclusive: 7.08 µM [inhibitor, partial curve, poor fit]
CCOC(=O)/C(C#N)=C\c1cc(C)n(-c2ccccc2)c1C	inactive
COc1ccccc1NC(=O)CSc1oc(-c2ccc(F)cc2)nc1S(=O)(=O)c1ccc(Br)cc1	inactive
CCc1ccc(CN(C)C(=O)C2CCC(=O)N(CC3CCCCC3)C2)cc1 (centres undefined)	inconclusive: 14.1 µM [inhibitor, single point]
O=C(COC(=O)[C@@H]1CC(O)CN1S(=O)(=O)c1ccc(Cl)cc1)NC(=O)NCc1ccccc1 (some centres undefined)	inactive
S=C1SCN(Cc2ccco2)CN1Cc1ccco1	inconclusive: 11.2 µM [inhibitor, partial curve, poor fit]
CNc1snc(C)c1C(=O)OCC(=O)N(C)Cc1ccccc1	inconclusive: 31.6 µM [inhibitor, single point]
N#C/C(=C(/O)CCl)c1nc2c(s1)CCc1ccccc1-2	inconclusive: 35.5 µM [inhibitor, single point]
COc1cc(/C=C/[N+](=O)[O-])ccc1OCc1cccc(C(=O)O)c1	inconclusive: 35.5 µM [inhibitor, single point]
Cc1ccccc1C(=O)N1CCC(C(=O)NCc2ccc(Cl)cc2)CC1	inconclusive: 3.16 µM [inhibitor, partial curve, poor fit]
CCOC(=O)CS(=O)(=O)c1nc(-c2ccc(F)cc2)cc(C(F)(F)F)n1	inconclusive: 35.5 µM [inhibitor, single point]
